In paper PMC7738880, “Identification of novel CD44v6-binding peptides that block CD44v6 and deliver a pro-apoptotic peptide to tumors to inhibit tumor growth and metastasis in mice” (Theranostics, 2021) one finds Kd data, which are given here for 1 molecule.

No end group written: not given here. *: point of attachment. Biotin = O=C1N[C@H]2[C@H](CS[C@H]2CCCCC(=O)*)N1

Assay [1] addresses T1, biotin-labeled NLN (CNLNTIDTC) (cysteine pairing not given here).
T1 construct: also called biotinylated NLN; biotin-conjugated NLN; source: synthetic peptide (Anygen Inc.)
T1 peptide: Biotin-CNLNTIDTC
Kind of assay: SPR; biotin-labeled peptides (25 µM) immobilised on a streptavidin chip; CD44v6-Fc or CD44-Fc flowed at 0.125, 0.25, 0.5, 1 and 2 µM, single cycle; 137 mM NaCl, 10 mM phosphate, 2.7 mM KCl pH 7.4, 62.5 µM BSA, 0.005% Tween-20; steady-state fit, 1:1 model. As to conditions: both partners purified. A general note: SPR reads the build-up and loss of mass on a sensor chip optically.

Assay [2] concerns the target T2, biotin-labeled NEW (CNEWQLKSC) (cysteine pairing not given here).
T2 construct: also called biotinylated NEW; biotin-conjugated NEW; source: synthetic peptide (Anygen Inc.)
T2 peptide: Biotin-CNEWQLKSC
Described as above. As to conditions: both partners purified.

B1: recombinant human CD44v6-Fc protein (Fc fusion)
chain: [letters of about 200 residues not shown]ATQATPSSTTEETATQKEQWFGNRWHEGYRQTPKEDSHSTTGTAAGDQDTFHPSGGSHTTHGSESDGHSHGSQEGGANTTSGPIRTPQIPE
One may read the Kd as the concentration at which binding is half-saturated. Higher therefore signals lower affinity. Turning to B1, the Kd in assay [1] amounted to 253 ± 79 nM; in assay [2] it was 85 ± 18 nM.
